In all, about 110,000 compounds were measured (“z-score”: median about -0.1, highest 2% from about 2 on). The list shows a part of the results. Calls of active or inactive are those of the source.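 The calls were made as follows: active = z-score in the third read window above 3 or below -3; inactive = the rest.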

The test has as its target Metabotropic glutamate receptor 8 (Rattus norvegicus) (UniProt P70579). The test is described as follows: rat mGluR8 modulators via GIRK flux, primary screen, cell-based, thallium flux, HTS (AID 488969). The settings on record: HEK293 rat mGluR8, GIRK (G protein-gated inwardly rectifying potassium channel) thallium flux, FluoZin2; at 10 µM; stronger effect = higher value; submaximal glutamate (EC20) added with thallium.
UniProt P70579, sequence (P70579 whole entry, looked up): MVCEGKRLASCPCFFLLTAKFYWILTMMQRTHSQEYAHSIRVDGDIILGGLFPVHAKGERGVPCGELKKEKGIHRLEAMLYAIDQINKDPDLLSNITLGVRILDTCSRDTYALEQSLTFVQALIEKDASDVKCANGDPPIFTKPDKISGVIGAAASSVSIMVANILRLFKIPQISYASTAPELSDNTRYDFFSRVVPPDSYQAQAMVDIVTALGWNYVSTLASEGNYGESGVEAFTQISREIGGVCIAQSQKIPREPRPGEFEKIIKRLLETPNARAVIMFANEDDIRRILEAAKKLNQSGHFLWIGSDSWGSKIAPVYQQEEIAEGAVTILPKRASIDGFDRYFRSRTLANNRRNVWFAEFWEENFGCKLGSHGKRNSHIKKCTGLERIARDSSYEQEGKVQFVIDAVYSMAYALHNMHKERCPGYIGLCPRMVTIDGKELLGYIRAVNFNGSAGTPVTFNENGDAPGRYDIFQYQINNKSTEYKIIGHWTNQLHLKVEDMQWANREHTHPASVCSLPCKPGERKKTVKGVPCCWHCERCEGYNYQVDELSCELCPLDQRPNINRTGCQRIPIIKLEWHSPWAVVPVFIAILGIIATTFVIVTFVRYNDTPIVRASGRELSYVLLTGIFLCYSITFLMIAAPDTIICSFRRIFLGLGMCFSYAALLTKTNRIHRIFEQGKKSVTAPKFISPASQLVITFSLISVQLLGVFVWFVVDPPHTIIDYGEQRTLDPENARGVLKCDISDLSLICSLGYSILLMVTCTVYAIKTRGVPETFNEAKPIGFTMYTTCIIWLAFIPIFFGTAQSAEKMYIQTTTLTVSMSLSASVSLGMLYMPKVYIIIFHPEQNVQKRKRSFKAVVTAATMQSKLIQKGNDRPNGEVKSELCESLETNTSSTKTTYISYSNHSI
Turning to `CCn1c(Cc2c(C)[nH]c3ccccc23)nnc1SCC(=O)NCc1ccco1`, the z-score was -0.0935.
Then `COc1cccc(/C(O)=C2/C(=O)C(=O)N(c3ccccn3)C2c2ccc(OC)c(OC)c2)c1` (stereo not drawn), with -0.205; and `CS(=O)(=O)N(Cc1ccc(Cl)cc1)c1ccc(C(=O)NCCC2=CCCCC2)cc1`, with 0.108; and `CCCCC(c1nnnn1Cc1ccco1)N1CCN(C(=O)c2ccco2)CC1` (stereo not drawn), with 0.0939.
In the case of `Cc1cc(C)nc(SCc2cc(=O)c(OC(=O)c3ccco3)co2)n1` it was -0.383; in that of `CCOCc1c(C(=O)OCC(=O)Nc2ccc(C)c(S(=O)(=O)N(C)C)c2)oc2ccccc12`, active: 9.51.
Then `COc1ccccc1/C=C(/C(=O)OCC(=O)NCc1ccccc1)c1ccccc1`, with -0.384.
Compound `COc1ccc(/C=C2\SC(=O)N(CCC(=O)Nc3ccccc3)C2=O)cc1OC` showed a z-score of -0.151.
Then `CCOC(=O)c1cn(-c2ccc(F)c(F)c2F)c2c(F)c(F)c(F)cc2c1=O`, with -0.165.
In the case of `Cc1ccc(CSc2nc3ncccc3[nH]2)cc1` it was 1.17.
In the case of `Cc1cccc(NC(=S)NC2CCCCCC2)c1C` it was -0.188; in that of `COc1ccc(OC)c(/C=C/C(=O)N(C)CC(=O)Nc2cc(C)ccc2C)c1`, -0.349; in that of `CC(C)NC(=S)N/N=C1\CCCCC1C1CCCCC1` (stereo not drawn), 0.726.
Compound `CCOC(=O)c1[nH]c2cc(OC)c(OC)cc2c1NC(=O)CN1CCN(c2ccc(OC)cc2)C(C)C1` (stereo not drawn) had a z-score of -0.425.
In the case of `O=C(NNc1cccc(Cl)c1)c1cccnc1Cl`, the z-score was -0.279.
Then `CCOC(=O)C1CCCN(c2c(NCCCN3CCCC(C)C3)c(=O)c2=O)C1` (stereo not drawn), with 0.408; and `CCc1ccc(C(=O)COC(=O)c2cc([N+](=O)[O-])ccc2NCCO)cc1`, with 0.0448; and `C=CCNC(=O)c1ccccc1NC(=O)c1ccc(Cl)c(S(=O)(=O)Nc2cc(C)ccc2C)c1`, with -0.242.
Then `CN1CSC2=C(C#N)C(c3cccc(OCc4ccccc4)c3)CC(=O)N2C1` (stereo not drawn), with 0.117; and `CC(=O)Nc1ccc(NC2=Nc3ccccc3N3C2=Nc2c(c(C)nn2-c2ccccc2)C3c2ccccc2)cc1` (stereo not drawn), with -0.238.
Then `CC(C)C(=O)N1CCN(CCN=CC2=C(O)CC(c3ccco3)CC2=O)CC1` (stereo not drawn), with 0.416.
`CCOC(=O)c1sc(C)c2c1NC(c1ccc(N(C)C)cc1)NC2=O` (stereo not drawn) returned a z-score of -0.041.
In the case of `Cc1ccc(OCc2nnc(SCC(=O)c3cccc([N+](=O)[O-])c3)n2C)cc1` it was -0.0978; in that of `CCOC(=O)C1CCN(C(=O)CCn2c(=O)[nH]c3ccsc3c2=O)CC1`, -0.469; in that of `CC(C)CC(=O)NC(=S)Nc1ccc(S(=O)(=O)N2CCN(C)CC2)cc1`, -0.0864.
`Cc1cc(C)c(S(=O)(=O)c2ccccc2C)c(SCC(C)C)n1` displayed a z-score of 0.132.
In the case of `C=C(C)CNC(=S)N/N=C1\CCCCc2ccccc21` it was active: 3.15; in that of `CCOC(=O)c1ccc(-n2c(C)nc3c(cnn3-c3ccccc3C)c2=O)cc1`, -0.454.
In the case of `O=C(Nc1cccc2cccnc12)c1cccc2ccccc12` it was 0.392; in that of `COc1cc(C)c(Cl)cc1S(=O)(=O)NCc1ccncc1`, -0.0504.
On to `O=CN1CCN(C(=O)c2ccccc2Cl)CC1`, for which the z-score was -0.278.
Then `O=c1oc2ccccc2n1CCc1ccccc1`, with -0.159; and `Cc1ccc(CSCCNC(=O)c2ccc(N(C)S(=O)(=O)c3ccccc3)cc2)cc1`, with -0.189.
In the case of `Cc1ccc(SCC(=O)NC(=O)c2ccc(S(=O)(=O)N(C)C)cc2)cc1C` it was -0.181; in that of `CN(C)S(=O)(=O)c1ccc(C(=O)OCn2nnc3ccccc3c2=O)cc1`, -0.599.
In the case of `CC(C)=C1SC(N2CCN(c3ccc(C)cc3)CC2)=NC1=O` it was -0.391.
Compound `COc1ccc(-n2c(C)nc3c(cnn3-c3ccc(C)c(C)c3)c2=O)cc1` came in with a z-score of 0.55.
In the case of `O=C(Nc1ccc(-c2cc3ccccc3oc2=O)c(Cl)c1)c1cccnc1` it was -0.334; in that of `COc1cc(NC(=O)c2cc(OC)c(OC)c(OC)c2)c(OC)cc1NC(=O)CN1CCCCC1`, -2.33.
In the case of `CCOc1ccccc1C1N(c2ccc(F)cc2)C(=O)C2CCCN21` (stereo not drawn) it was 0.236.
In the case of `CC(=O)Oc1c(C)c(=O)n(C)c2ccccc12` it was -0.613; in that of `CCc1ccc(NC(=O)C2CC(=O)N=C(N)S2)cc1` (stereo not drawn), 0.0844.
`CCN(CC)S(=O)(=O)c1cccc(C(=O)Nc2cc(C)cc(C)c2)c1`: the z-score came out at 0.0622.
In the case of `Cc1nn2c(COc3ccc(NC(=O)c4ccccc4Cl)cc3)nnc2c2ccccc12` it was 0.246.
In the case of `Cc1cc(Cl)ccc1NC(=S)N(CCCN1CCOCC1)Cc1cccs1` it was -0.367.
Turning to `Cc1cc(C)cc(Oc2ncnc3c2ncn3Cc2c(Cl)cccc2Cl)c1`, the z-score was -0.184.
Then `Cc1cccc(-n2c(CCN3C(=O)c4ccccc4C3=O)nc3ccccc3c2=O)n1`, with -0.233; and `COC(=O)c1c(C)oc2ccc(NS(=O)(=O)c3cccs3)cc12`, with -0.587.
Then `OC(Cn1cncn1)c1ccc(Cl)cc1` (stereo not drawn), with 0.554; and `CC(=O)c1ccc(N2CCN(C(=O)c3ccc(OCc4c(C)noc4C)cc3)CC2)cc1`, with 0.463.
In the case of `Cc1cccn2c(=O)c3cc(C#N)c(=N)n(CCN4CCOCC4)c3nc12` it was -0.18; in that of `CCc1ccc(OC)c(S(=O)(=O)NCCOc2ccccc2)c1`, -0.254; in that of `CCOc1ccc(/C=N/NC(=O)c2c(-c3ccccc3)noc2C)cc1`, -0.181.
Compound `Clc1ccc(C(c2nnnn2C2CCCCC2)N(Cc2cccnc2)Cc2ccco2)cc1` (stereo not drawn) came in with a z-score of -0.77.
Then `COc1ccc(-c2cc3nc[nH]c(=O)c3s2)cc1`, with 0.281.
Compound `N#C/C(=C\c1ccc(Cl)s1)C(=O)N1CCN(c2ccccc2)CC1` gave a z-score of -0.244.
In the case of `O=C(N/N=C/c1ccco1)c1cc(-c2ccccc2)n[nH]1` it was 0.423.
On to `O=C(c1oc2ccccc2c1CSCc1ccccc1)N1CCN(c2ncccn2)CC1`, for which the z-score stood at 1.89.
Then `CCOC(=O)C(NC(=O)OC(C)C)(Nc1nccs1)C(F)(F)F` (stereo not drawn), with 0.497; and `Nc1nonc1-n1nnc(C(=O)N/N=C/c2cc(Br)ccc2O)c1CSC1=NCCS1`, with 0.661.
In the case of `Cn1c(Cn2cnc([N+](=O)[O-])n2)nnc1SCC(=O)Nc1ccccc1` it was -1.24; in that of `N=c1oc2ccccc2cc1-c1nc(-c2ccc(Cl)cc2)cs1`, -0.248.
In turn, `CC(=O)c1ccc(NC(=O)CCSCCC(=O)Nc2ccc(C(C)=O)cc2)cc1` yielded a z-score of -0.481.
In the case of `COc1ccc(C(=O)NCC(=O)N2CCC(C)CC2)cc1OC` it was 0.00724; in that of `O=C(NCCCn1ccnc1)c1cn(-c2ccccc2)nc1-c1ccccc1`, -0.532.
The compound `Cc1cnc(C(=O)OCC(=O)NCc2ccccc2)cn1` had a z-score of -0.845.
Then `COc1cc2c(C(=O)N3CCN(C)CC3)c(C)n(-c3ccccc3)c2cc1Br`, with -0.333; and `N#CC1=C2SCN(c3ccc(F)cc3)CN2C(=O)CC1c1cccc(F)c1` (stereo not drawn), with -0.281.
As to `CCc1ccc(Nc2nnc(SCC(=O)Nc3sccc3C(N)=O)s2)cc1`, the z-score was -0.208.
Then `CCOC(=O)c1cc(Br)c(=O)n2ccccc12`, with -0.334; and `CN(CC(=O)N1CCc2ccccc21)S(=O)(=O)c1ccc(Cl)cc1`, with -0.00318; and `CCc1cccc(NC(=O)Cn2c(-c3ccccc3)cc(C(C)=O)c2C)c1`, with -0.0569.
As to `CC1(C)CC2CC(C)(CN2C(=O)COC(=O)CNC(=O)c2ccc(Cl)c(Cl)c2)C1` (stereo not drawn), the z-score was -0.326.
In the case of `COc1cc(/C=C/c2noc(-c3ccccc3O)n2)cc(OC)c1OC` it was 0.236.
Then `COc1cc(S(=O)(=O)N2CCN(C)CC2)ccc1Cl`, with -0.0928.
Compound `CCOc1ccccc1OCC(=O)Nc1ccc(N2CCCCC2)cc1` returned a z-score of 0.13.
Then `COC(=O)[C@H](C)NC(=O)NC1CCCc2ccccc21` (stereo partly drawn), with 0.715; and `CCCc1ccc(-c2cc(NC(=O)CSc3n[nH]c(N)n3)n(-c3ccccc3)n2)cc1`, with -0.0405.
In the case of `O=C(CSc1nc2ccccc2c(=O)[nH]1)c1cccs1` it was -1.18; in that of `CCOC(=O)c1oc2ccc(S(=O)(=O)Nc3ccc4c(c3)n(C)c(=O)n4C)cc2c1C`, -1.19.
Then `Cc1oc2ccc(OCC(N)=O)cc2c1C(=O)OC(C)C`, with 0.262; and `Cc1ccc(Cl)cc1N(Cc1ccc(C(=O)NCc2cccnc2)cc1)S(=O)(=O)c1ccccc1`, with -0.0346.
`CC1CCCCC12NC(=O)N(CC(=O)Nc1sc3c(c1C(N)=O)CCC3)C2=O` (stereo not drawn) came in with a z-score of 0.0207.
Then `CC(=O)c1c(C)[nH]c(C(=O)OCC(=O)N(C)C)c1C`, with 0.594; and `O=C(c1ccccc1)N1CCOC12CCN(c1ncc(C(F)(F)F)cc1Cl)CC2`, with -1.17; and `COc1cc(-c2n[nH]c(=S)n2-c2cc(C(F)(F)F)ccc2Cl)cc(OC)c1OC`, with 0.352.
In the case of `O=C(O)CCC(=O)Nc1ccccc1C(=O)Nc1ccccc1` it was -0.0377.
In the case of `COCCn1c(C)cc(C(=O)CSc2n[nH]c(N)n2)c1C` it was 0.27; in that of `Cc1ccc(C(C(=O)NC2CCCC2)N(Cc2cccs2)C(=O)CNC(=O)c2cccs2)o1` (stereo not drawn), -0.479; in that of `CC1=CSC2=NC(=O)/C(=C\c3cccn3-c3ccc([N+](=O)[O-])cc3)C(=N)N12`, 0.0319.
`COc1ccc(Cl)cc1NC(=O)CCn1cnc2ccccc2c1=O`: the z-score was determined as 0.216.
Then `C=CCNC(=O)Nc1ccc(OCC)cc1`, with 0.217.
In the case of `CCCNC(=S)Nc1ccc(Nc2ccccc2)cc1` it was -0.261; in that of `O=C(Cn1c(=O)n(-c2ccccc2)c(=O)c2oc3ccccc3c21)Nc1ccccc1`, -0.388; in that of `CCOC(=O)CC(C#N)c1cn(C)c2ccccc12` (stereo not drawn), -0.146.
Compound `CC(=O)O[C@H]1CSC[C@H]1NC(=O)c1ccccc1` gave a z-score of 0.95.
Then `COc1ccc(C2C(C(C)=O)=C(O)C(=O)N2c2nccs2)cc1` (stereo not drawn), with -0.323.
As to `Cc1ccc(-c2cc(C(=O)Nc3cnn(C(C)C)c3)no2)cc1`, the z-score was determined as 0.74.
For the compound `O=C(c1nc2ncccn2n1)N1CCN(c2ccccc2)CC1`, the z-score was -0.0837.
Then `COc1ccc(C(=O)n2nc(C)cc2Nc2ccccc2)cc1`, with 0.319.
In the case of `Cn1c(-c2ccc(C=O)s2)nc2ccccc21` it was -0.462; in that of `O=C(Oc1ccc2ccc(=O)oc2c1)C1CCCCC1`, -0.195; in that of `Cc1ccnc2nc(C(=O)N3CCN(c4ccc(F)cc4)CC3)nn12`, -0.0086.
In the case of `CN(C)c1ccc(CC(=O)c2nc3ccccc3s2)cc1` it was -0.0472.
The compound `COc1ccc(C(=O)Nc2cc(OC)cc(OC)c2)cc1` yielded a z-score of -0.246.
Then `Cc1nc(-c2cccc(S(=O)(=O)N3CCC(C)CC3)c2)cs1`, with -0.145; and `COc1ccc(C(=O)c2oc3ccccc3c2NC(C)=O)cc1`, with -0.128.
The compound `C/C(=N\N=C1\NC(=O)CC(C(=O)O)S1)c1cccs1` (stereo not drawn) had a z-score of -0.264.
